According to US11041000B2, “Peptide inhibitors of interleukin-23 receptor and their use to treat inflammatory diseases” (priority 2019, dated 2021):
At least one peptide structure holds a part that was inferred or is arguable (an end, a ring closure or a residue). Bridge positions count the residues as written; N and C are the ends. Square brackets hold non-standard residues; d marks the D form. Peptide text beside a SMILES is read from it. Trp(7-Me) = Cc1cccc2c(C[C@H](N)C(=O)O)c[nH]c12; Trp(2-Me) = Cc1[nH]c2ccccc2c1C[C@H](N)C(=O)O; 2Nal = N[C@@H](Cc1ccc2ccccc2c1)C(=O)O; AEF = NCCOc1ccc(C[C@H](N)C(=O)O)cc1; Cit = NC(=O)NCCC[C@H](N)C(=O)O; Pen = CC(C)(S)[C@H](N)C(=O)O; hLeu = CC(C)CC[C@H](N)C(=O)O; αMeK = C[C@](N)(CCCCN)C(=O)O; Aib = CC(C)(N)C(=O)O; βAla = NCCC(=O)O

Columns and labels:
[1] = system: Natural killer (NK) cells; assay: NK cell based assay (IL-23-induced IFNγ); conditions: primary human NK cells, IL-23 plus IL-18 10 ng/mL, IFNγ in supernatant after 20 to 24 hours
Method: Natural killer (NK) cells, purified from human peripheral blood of healthy donors by negative selection (Miltenyi Biotech, Cat #130-092-657), were cultured in complete media (RPMI 1640 containing 10% FBS, L-glutamine and penicillin-streptomycin) in the presence of IL-2 (RnD, Cat #202-IL-010/CF) at 25 ng/mL. After 7 days, cells were centrifuged, and resuspended in complete media at 1E6 cells/mL. […] After 20 to 24 hours, IFNγ in the supernatant was quantified using Quantikine ELISA (RnD, Cat #DIF50).

[2] = molecular target: IL-23R-expressing DB cells (Homo sapiens, UniProt Q5VWK5); assay: DB cells IL23R pSTAT3 cell assay (pStat3HTRF); assay type: cell-based; conditions: DB cells stimulated with IL-23 0.5 nM, 30 minutes, phospho-STAT3 in cell lysates; read-out: pStat3 HTRF
Sequence of IL-23R-expressing DB cells (Q5VWK5 24-629 limits assumed): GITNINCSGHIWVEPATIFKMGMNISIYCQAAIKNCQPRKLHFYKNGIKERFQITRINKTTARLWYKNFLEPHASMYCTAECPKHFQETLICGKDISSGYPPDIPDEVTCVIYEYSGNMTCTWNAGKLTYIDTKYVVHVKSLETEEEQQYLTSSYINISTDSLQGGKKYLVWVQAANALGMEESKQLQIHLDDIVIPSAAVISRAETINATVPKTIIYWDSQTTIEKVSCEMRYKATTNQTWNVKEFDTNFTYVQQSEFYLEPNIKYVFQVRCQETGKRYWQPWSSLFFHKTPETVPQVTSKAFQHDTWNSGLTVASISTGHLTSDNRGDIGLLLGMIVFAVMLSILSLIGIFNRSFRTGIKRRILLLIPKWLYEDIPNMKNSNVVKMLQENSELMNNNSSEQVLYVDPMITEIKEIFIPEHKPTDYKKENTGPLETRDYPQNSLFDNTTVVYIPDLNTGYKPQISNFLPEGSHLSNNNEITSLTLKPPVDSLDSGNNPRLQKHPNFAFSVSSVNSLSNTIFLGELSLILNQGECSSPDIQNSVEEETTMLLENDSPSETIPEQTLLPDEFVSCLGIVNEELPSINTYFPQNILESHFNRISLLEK

SMILES | IC50 [1] [nM] | IC50 [2] [nM]
CC(=O)NCCCC[C@@H]1NC(=O)[C@H](Cc2c[nH]c3c(C)cccc23)NC(=O)[C@H]([C@@H](C)O)NC(=O)[C@H](CC(N)=O)NC(=O)[C@@H](NC(C)=O)C(C)(C)SSC(C)(C)[C@@H](C(=O)N[C@@H](Cc2ccc3ccccc3c2)C(=O)N[C@@H](Cc2ccc3ccccc3c2)C(=O)N[C@@](C)(CCCCN)C(=O)N[C@@H](CCCCNC(C)=O)C(=O)N[C@@H](CC(N)=O)C(=O)N[C@H](CC(C)C)C(N)=O)NC1=O [compound 289] (Ac-[Pen]NT[Trp(7-Me)]K(Ac)[Pen][2Nal][2Nal][αMeK]K(Ac)N[dL]-NH2; disulfide 1-6) | 5.12 | 1.91
CC(=O)NCCCC[C@H](NC(=O)[C@](C)(CC(C)C)NC(=O)[C@H](Cc1ccc2ccccc2c1)NC(=O)[C@H](Cc1ccc(OCCN)cc1)NC(=O)[C@H]1NC(=O)[C@H](CCC(N)=O)NC(=O)[C@H](Cc2c[nH]c3c(C)cccc23)NC(=O)[C@H]([C@@H](C)O)NC(=O)[C@H](CC(N)=O)NC(=O)[C@@H](NC(C)=O)C(C)(C)SSC1(C)C)C(=O)N[C@@H](CC(N)=O)C(=O)NCCC(N)=O [compound 201] | 3.06 | 1.05
CC(=O)NCCCC[C@@H]1NC(=O)[C@H](Cc2c[nH]c3c(C)cccc23)NC(=O)[C@H]([C@@H](C)O)NC(=O)[C@H](CC(N)=O)NC(=O)[C@@H](NC(C)=O)C(C)(C)SSC(C)(C)[C@@H](C(=O)N[C@@H](Cc2ccc(OCCN)cc2)C(=O)N[C@@H](Cc2ccc3ccccc3c2)C(=O)N[C@@](C)(CCCCN)C(=O)N[C@@H](CCCCNC(C)=O)C(=O)N[C@@H](CC(N)=O)C(=O)N[C@H](CC(C)C)C(N)=O)NC1=O [SEQ ID No. 245, Ac-[Pen]-NT-[W(7-Me)]-[Lys(Ac)]-[Pen]-Phe[4-(2-aminoethoxy)]-[2-Nal]-[a-MeLys]-[Lys(Ac)]-N-[(D)Leu]-NH2] | 2.7 | 0.51
CC(=O)NCCCC[C@@H]1NC(=O)[C@H](Cc2c[nH]c3c(C)cccc23)NC(=O)[C@H]([C@@H](C)O)NC(=O)[C@H](CC(N)=O)NC(=O)[C@@H](NC(C)=O)C(C)(C)SSC(C)(C)[C@@H](C(=O)N[C@@H](Cc2ccc(OCCN)cc2)C(=O)N[C@@H](Cc2ccc3ccccc3c2)C(=O)N[C@@](C)(CCCCN)C(=O)N[C@@H](CCCCNC(C)=O)C(=O)N[C@@H](CC(N)=O)C(=O)N[C@@H](C(N)=O)C(C)C)NC1=O [compound 251] | 8.19 | 0.986
CC(=O)NCCCC[C@@H]1NC(=O)[C@H](Cc2c[nH]c3c(C)cccc23)NC(=O)[C@H]([C@@H](C)O)NC(=O)[C@H](CCC(C)C)NC(=O)[C@@H](NC(C)=O)C(C)(C)SSC(C)(C)[C@@H](C(=O)N[C@@H](Cc2ccc(OCCN)cc2)C(=O)N[C@@H](Cc2ccc3ccccc3c2)C(=O)N[C@@](C)(CCCCN)C(=O)N[C@@H](CCCCNC(C)=O)C(=O)N[C@@H](CC(N)=O)C(=O)N[C@H](CC(C)C)C(N)=O)NC1=O [compound 337] (Ac-[Pen][hLeu]T[Trp(7-Me)]K(Ac)[Pen][AEF][2Nal][αMeK]K(Ac)N[dL]-NH2; disulfide 1-6) | 11.1 | 0.779
CC(=O)NCCCC[C@H](NC(=O)[C@](C)(CC(C)C)NC(=O)[C@H](Cc1ccc2ccccc2c1)NC(=O)[C@H](Cc1ccc(OCCN)cc1)NC(=O)[C@H]1NC(=O)[C@H](CCC(N)=O)NC(=O)[C@H](Cc2c[nH]c3c(C)cccc23)NC(=O)[C@H]([C@@H](C)O)NC(=O)[C@H](CC(N)=O)NC(=O)[C@@H](NC(C)=O)C(C)(C)SSC1(C)C)C(=O)N[C@@H](CO)C(=O)NCCC(N)=O [compound 221] | 5.5 | 1.27
CC(=O)NCCCC[C@H](NC(=O)[C@](C)(CC(C)C)NC(=O)[C@H](Cc1ccc2ccccc2c1)NC(=O)[C@H](Cc1ccc(OCCN)cc1)NC(=O)[C@H]1NC(=O)[C@H](CCC(N)=O)NC(=O)[C@H](Cc2c[nH]c3c(C)cccc23)NC(=O)[C@H]([C@@H](C)O)NC(=O)[C@H](CC(N)=O)NC(=O)[C@@H](NC(C)=O)C(C)(C)SSC1(C)C)C(=O)N[C@@H](CC(C)C)C(=O)NCCC(N)=O [compound 208] | 7.8 | 5.39
CC(=O)NCCCC[C@H](NC(=O)[C@](C)(CC(C)C)NC(=O)[C@H](Cc1ccc2ccccc2c1)NC(=O)[C@H](Cc1ccc(OCCN)cc1)NC(=O)[C@H]1NC(=O)[C@H](CCC(N)=O)NC(=O)[C@H](Cc2c[nH]c3c(C)cccc23)NC(=O)[C@H]([C@@H](C)O)NC(=O)[C@H](CC(N)=O)NC(=O)[C@@H](NC(C)=O)C(C)(C)SSC1(C)C)C(=O)N[C@@H](C)C(=O)NCCC(N)=O [compound 207] | 8.4 | 1.46
CC(=O)NCCCC[C@H](NC(=O)[C@](C)(CCCCN)NC(=O)[C@H](Cc1ccc2ccccc2c1)NC(=O)[C@H](Cc1ccc(OCCN)cc1)NC(=O)[C@H]1NC(=O)[C@H](CCCNC(N)=O)NC(=O)[C@H](Cc2c[nH]c3c(C)cccc23)NC(=O)[C@H]([C@@H](C)O)NC(=O)[C@H](CC(N)=O)NC(=O)[C@@H](NC(C)=O)C(C)(C)SSC1(C)C)C(=O)N[C@@H](CC(N)=O)C(=O)N[C@H](CO)C(N)=O [compound 261] (Ac-[Pen]NT[Trp(7-Me)][Cit][Pen][AEF][2Nal][αMeK]K(Ac)N[dS]-NH2; disulfide 1-6) | 4.87 | 0.522
CC(=O)NCCCC[C@H](NC(=O)[C@](C)(CCCCN)NC(=O)[C@H](Cc1ccc2ccccc2c1)NC(=O)[C@H](Cc1ccc(OCCN)cc1)NC(=O)[C@H]1NC(=O)[C@H](CCCCNC(=O)CN)NC(=O)[C@H](Cc2c[nH]c3c(C)cccc23)NC(=O)[C@H]([C@@H](C)O)NC(=O)[C@H](CC(N)=O)NC(=O)[C@@H](NC(C)=O)C(C)(C)SSC1(C)C)C(=O)N[C@@H](CC(N)=O)C(=O)N[C@H](CC(C)C)C(N)=O [compound 320] | 3.35 | 0.632
CC(=O)NCCCC[C@H](NC(=O)[C@](C)(CC(C)C)NC(=O)[C@H](Cc1ccc2ccccc2c1)NC(=O)[C@H](Cc1ccc(OCCN)cc1)NC(=O)[C@H]1NC(=O)[C@H](CCC(N)=O)NC(=O)[C@H](Cc2c[nH]c3c(C)cccc23)NC(=O)[C@H]([C@@H](C)O)NC(=O)[C@H](CC(N)=O)NC(=O)[C@@H](NC(C)=O)C(C)(C)SSC1(C)C)C(=O)N[C@H](C)C(=O)NCCC(N)=O [compound 209] | 30.1 | 9.84
CC(=O)NCCCC[C@@H]1NC(=O)[C@H](Cc2c[nH]c3c(C)cccc23)NC(=O)[C@H]([C@@H](C)O)NC(=O)[C@H](CC(N)=O)NC(=O)[C@@H](NC(C)=O)C(C)(C)SSC(C)(C)[C@@H](C(=O)N[C@@H](Cc2ccc(OCCN)cc2)C(=O)N[C@@H](Cc2c(C)[nH]c3ccccc23)C(=O)N[C@@](C)(CCCCN)C(=O)N[C@@H](CCCCNC(C)=O)C(=O)N[C@@H](CC(N)=O)C(=O)N[C@H](CCCCN)C(N)=O)NC1=O [compound 353] (Ac-[Pen]NT[Trp(7-Me)]K(Ac)[Pen][AEF][Trp(2-Me)][αMeK]K(Ac)N[dK]-NH2; disulfide 1-6) | 7.1 | 0.715
CC(=O)NCCCC[C@@H]1NC(=O)[C@H](Cc2c[nH]c3c(C)cccc23)NC(=O)[C@H]([C@@H](C)O)NC(=O)[C@H](CC(N)=O)NC(=O)[C@@H](NC(C)=O)C(C)(C)SSC(C)(C)[C@@H](C(=O)N[C@@H](Cc2ccc(OCCN)cc2)C(=O)N[C@@H](Cc2ccc3ccccc3c2)C(=O)N[C@@](C)(CCCCN)C(=O)N[C@@H](CCCCNC(=O)CC(F)(F)F)C(=O)N[C@@H](CC(N)=O)C(=O)N[C@H](CC(C)C)C(N)=O)NC1=O [compound 360] | 1.1 | 0.568
CC(=O)NCCCC[C@H](NC(=O)[C@](C)(CC(C)C)NC(=O)[C@H](Cc1ccc2ccccc2c1)NC(=O)[C@H](Cc1ccc(OCCN)cc1)NC(=O)[C@H]1NC(=O)[C@H](CCC(N)=O)NC(=O)[C@H](Cc2c[nH]c3c(C)cccc23)NC(=O)[C@H]([C@@H](C)O)NC(=O)[C@H](CC(N)=O)NC(=O)[C@@H](NC(C)=O)C(C)(C)SSC1(C)C)C(=O)N(C)CC(=O)NCCC(N)=O [compound 224] | > 500 | 124
CC(=O)NCCCC[C@H](NC(=O)[C@](C)(CCCCN)NC(=O)[C@H](Cc1ccc2ccccc2c1)NC(=O)[C@H](Cc1ccc(OCCN)cc1)NC(=O)[C@H]1NC(=O)[C@H](CCCNC(N)=O)NC(=O)[C@H](Cc2c[nH]c3c(C)cccc23)NC(=O)[C@H]([C@@H](C)O)NC(=O)[C@H](CC(N)=O)NC(=O)[C@@H](NC(C)=O)C(C)(C)SSC1(C)C)C(=O)N[C@@H](CC(N)=O)C(=O)NC(C)(C)C(=O)NCCC(N)=O [compound 340] (Ac-[Pen]NT[Trp(7-Me)][Cit][Pen][AEF][2Nal][αMeK]K(Ac)N[Aib][βAla]-NH2; disulfide 1-6) | 2.1 | 0.322
CC(=O)NCCCC[C@H](NC(=O)[C@](C)(CCCCN)NC(=O)[C@H](Cc1ccc2ccccc2c1)NC(=O)[C@H](Cc1ccc(OCCN)cc1)NC(=O)[C@H]1NC(=O)[C@H](CCC(N)=O)NC(=O)[C@H](Cc2c[nH]c3c(C)cccc23)NC(=O)[C@H]([C@@H](C)O)NC(=O)[C@H](CC(N)=O)NC(=O)[C@@H](NC(C)=O)C(C)(C)SSC1(C)C)C(=O)N[C@@H](CC(N)=O)C(=O)NCCC(N)=O [compound 202] | 3.49 | 
CCCCCCCC(=O)NCCCC[C@H](NC(=O)[C@](C)(CCCCN)NC(=O)[C@H](Cc1ccc2ccccc2c1)NC(=O)[C@H](Cc1ccc(OCCN)cc1)NC(=O)[C@H]1NC(=O)[C@H](CCCCNC(C)=O)NC(=O)[C@H](Cc2c[nH]c3c(C)cccc23)NC(=O)[C@H]([C@@H](C)O)NC(=O)[C@H](CC(N)=O)NC(=O)[C@@H](NC(C)=O)C(C)(C)SSC1(C)C)C(=O)N[C@@H](CC(N)=O)C(=O)N[C@H](CC(C)C)C(N)=O [compound 358] | 6.3 | 
CC(=O)NCCCC[C@H](NC(=O)[C@](C)(CC(C)C)NC(=O)[C@H](Cc1ccc2ccccc2c1)NC(=O)[C@H](Cc1ccc(OCCN)cc1)NC(=O)[C@H]1NC(=O)[C@H](CCC(N)=O)NC(=O)[C@H](Cc2c[nH]c3c(C)cccc23)NC(=O)[C@H]([C@@H](C)O)NC(=O)[C@H](CC(N)=O)NC(=O)[C@@H](NC(C)=O)C(C)(C)SSC1(C)C)C(=O)N[C@@H](C(=O)NCCC(N)=O)[C@H](C)O [compound 218] | 50.2 | 
